Test results published in the RNAGym collection of RNA variant scans (doi:10.1073/pnas.2313332121).
Variants at the background level are over-represented here.

B1: TPR 5TU (parent)
chain: GGAUCUUCUCGAUCUAACAAAAAAGACAAAUCUGCCACAAAGCUUGAGAGCAUCUUCGGAUGCAGAGGCGGCAGCCUUCGGUGGCGCGAUAGCGCCAACGUUCUCAACUAUGACACGCAAAACGCGUGCUCCGUUGAAUGGAGUUUAUCAUG

Variants of: B1
Assay: polymerase ribozyme fitness, log enrichment relative to wild type (log ratio); higher = more active; in vitro selection for triplet polymerase activity
Procedure, shortened: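 Each subunit of a heterodimeric triplet polymerase ribozyme was represented by a PCR-built, transcribed mutant library that underwent triplicate single-round in vitro selection with frozen incubation at −7 °C. Extended constructs were recovered by gel excision, streptavidin-bead capture and RT-PCR, and Illumina sequencing of input and output libraries kept genotypes with ≥10 input reads and ≥1 read per output. Fitness is the logarithm of genotype enrichment relative to wild-type enrichment, from inverse-variance-weighted replicate averages, with a logarithm base of 2.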

Variant | polymerase ribozyme fitness (log ratio)
C54U A64C U90G U139G G140A | ≤ -4.2
C54A C75G G88C U109C A147C | ≤ -4.2
U53G C54A C95U U104C A106U C118U C149G | ≤ -4.2
U55A G62C G81A | -3.98
U53G C79G C95G U130G G141C | ≤ -4.2
U55C U78C G117U U135G U151G | ≤ -4.2
U55A C75A C93G | ≤ -4.2
U53G C87U A120C | -2.07
C54U G62A G67A A142C | ≤ -4.2
U55A G68A C76A A89C C93U C95A C108A A115U G117A U130G | ≤ -4.2
U53G G94C A115U | -3.49
C54A C69U U144C | -3.51
U53G C96A U104G | -3.96
C54G U61C G84U C87U G88A A119U | ≤ -4.2
U53G G71C G86A G143U | ≤ -4.2
U55G G94A A98U C118A | -1.56
U55A G68C A73U C85A A113U | ≤ -4.2
C54U C85G U127A U134G G141U | ≤ -4.2
U55A C75U | 0.238
U55A U135A | -1.74
C54U C85A C125G U144C | ≤ -4.2
U53A C87G G141C | ≤ -4.2
U55A G70A C123G | -3.3
U55A G84A C95A A97C C103G | ≤ -4.2

Variant | polymerase ribozyme fitness (log ratio)
U53A C132U U146G | -3.87
U55A G68A C69A G83A C125A | ≤ -4.2
U55A G136A | -0.833
U55G C85A C93A A121U G126A U144A | ≤ -4.2
U53A C93U U148C | ≤ -4.2
C54G G86U A97G A107G A137C C149G | ≤ -4.2
U55G G84A C99A A120G C131U | -2.08
U55G G80C C118U C125A G133C U144A U148A | ≤ -4.2
U55G G65A A97U U130C | -1.27
C54U U56A C79U U82C C114U U127A | ≤ -4.2
C54A U78G C95A U127A G140C | ≤ -4.2
U55A U77C A120U U144G | ≤ -4.2
U53G A113U | -3.16
C54G C57U C75A A97U G141C U145G | ≤ -4.2
C54U G58C A64G G83C A97U C116A A122G | ≤ -4.2
U53A U55A G58C G59C G67U G94A C99A C103U U127A | ≤ -4.2
C54U C79U C87G A89U A107U G124C | ≤ -4.2
U55A C69A C93G C105U G141U A147C | ≤ -4.2
U55A U144A | -0.497
C54U U55A C95G C96A | -3.07
U55A G94A C108G | ≤ -4.2
U55G G88C U109A A121C | ≤ -4.2
U55A C57A C93U G126U A138G U148A | ≤ -4.2
U55A A60G C76G C87G C96U U139A G140C | ≤ -4.2

Variant | polymerase ribozyme fitness (log ratio)
C54A U78A C87G | ≤ -4.2
U53G G94C A122G C131A | ≤ -4.2
U55A G71A U90A C96U U135A | ≤ -4.2
U55G C57U U82G C87A G88A C95U C116A C118A | ≤ -4.2
U53G C96G U144C | -3.23
C54U G74A C114U C123G | ≤ -4.2
U55G G81U G84C G86A G88U A121U U135G | ≤ -4.2
C54U G84A A106G C108A | ≤ -4.2
C54U C93U U144C U146G | -3.87
U55G C85U | -0.188
C54A G67A G70C C72G A73C G74A C75G C87G C116G | ≤ -4.2
C54U A64U C96A | ≤ -4.2
U53A G83C G94U A97G U101G U102G C116A G140U | ≤ -4.2
U55A G124C C125U U148A | ≤ -4.2
C54U G67U C79U G92U G128U | ≤ -4.2
U53C C69U C75A C93U A115C | ≤ -4.2
U55G A98U U144G | 0.317
C54U G80A | -0.56
C54U G68A A91G C108G C116G C118G G136C U139G | ≤ -4.2
C54U C79G C96U G143A | ≤ -4.2
U55A A64C C85U U146G | ≤ -4.2
U55A G86U U145G | -1.41
C54U U55A C85G C149A | ≤ -4.2
U53A G86C G136C | ≤ -4.2

Variant | polymerase ribozyme fitness (log ratio)
C54A C95G G128C | ≤ -4.2
C54U U61A C72A C96U A98U C99A A142C | ≤ -4.2
C54U G59A C79U C85A C103U G141A | ≤ -4.2
U53G G59A | -1.37
C54A C96G | -1.71
C54A C116U U139A | -4.11
U55A G62A G65C U78G C96A | ≤ -4.2
C54A G58C G80U G92A G112C | ≤ -4.2
U55A G88C G133U U145C | ≤ -4.2
U53A C93A C105A A119G | ≤ -4.2
C54U G68C C69G G71U G140A U144G | ≤ -4.2
C54A C95U A106C U127G A137C A142G | ≤ -4.2
U55A G58U G84A C103U A120C | -0.0961
U55C C76G C93G C129G U139C U144G | ≤ -4.2
U55G C79A G81A A120G | ≤ -4.2
C54G C93A C95G A150G | ≤ -4.2
C54U G84A U104G A107U G143C | ≤ -4.2
C54U A91C | ≤ -4.2
U55A G67A C85U U90A A98U | ≤ -4.2
U55A U56C G70A C79A G92U C149G | ≤ -4.2
U53G C93G | ≤ -4.2
U55G C87U U111C U148A | ≤ -4.2
C54U G83A C93G C103U C123A G140A | ≤ -4.2
U53A U55A A64U C85U A113U A120U C125G A138C | ≤ -4.2

Variant | polymerase ribozyme fitness (log ratio)
U55G U61C G143A | ≤ -4.2
C54A U56A G70A A97U C105A A106C A107G A122G | ≤ -4.2
U55A A60G C69U G92U A147U | -0.244
U53A G83A C118A | -1.88
U55C G74C G140A | ≤ -4.2
U55A U61G C96U C123U G140C | ≤ -4.2
C54G A60G G81A C93G C118U | ≤ -4.2
U53A U55G G65C C85G C87U C103U C131A | ≤ -4.2
U55A A73U C96A A97U C118U | ≤ -4.2
U55G C79U C105U G136U | ≤ -4.2
U55A G86U U148A | ≤ -4.2
U55A G81C C87A A91U U144C U145C | ≤ -4.2
C54U C76U C93G A150G | -4.08
U55A A89U U102G | ≤ -4.2
C54U C93G A115G C129A C131G | ≤ -4.2
C54G G58A G88C C99U | ≤ -4.2
U55C G83C A115C C132U | -2.06
U53A G81C C95U A107G U134C U139A | ≤ -4.2
U53G G58A C69A G92A C108G | ≤ -4.2
U55A A119G U139G | 0.219
U53A G92C A115C C116A | ≤ -4.2
C54G U55A G94A C132U | ≤ -4.2
C54G C76A A89C A98U A115U U151A | ≤ -4.2
U55A G62U A64C A73C C87U | ≤ -4.2

Variant | polymerase ribozyme fitness (log ratio)
U55A C103G | -2.22
U55A C76U A121C | -0.181
C54A C105U | -0.396
C54U C93G U145A | ≤ -4.2
C54U C76U C85G | -1.18
C54A U61A C69U C125A | ≤ -4.2
U53A G80C G143U | ≤ -4.2
U55G C72G C85A C105U G141U | ≤ -4.2
U55G C87A C118U U130G | ≤ -4.2
U55G G59C G94C U102A U127A U135C | ≤ -4.2
U55A G117A | -0.438
C54G G65A G86C G117U | ≤ -4.2
U55A G71A A73U | ≤ -4.2
U55A C69A A97U U102C C149A | ≤ -4.2
U55A C116G | 0.374
C54G U56A C96G U102C G136A U144G | -3.08
U55A G143C | -2.99
U55A U109G A137U | -4.19
C54A C69G G84U U101A | ≤ -4.2
U53A C93G A119C | ≤ -4.2
C54U C93G | -3.72
U53A U56A G70U C93U G141C | ≤ -4.2
C54U C79A G83U | ≤ -4.2
U53A U77G A97U | ≤ -4.2

Variant | polymerase ribozyme fitness (log ratio)
U55G C69A C99U | -0.89
C54A G65A C103G A115G | ≤ -4.2
U55G G59C A142C | -3.24
C54G U90C A98G C105U U111A | ≤ -4.2
C54A A66G A91G C95G G141A G143U U146C | ≤ -4.2
U55G G83C | -0.921
U55A C69U G136A | -3.04
U55G A73C C87A | ≤ -4.2
C54G U104G U144A | ≤ -4.2
C54G C116U | -1.08
U56A A73G U77A G88C A98G C105A | ≤ -4.2
C54A A91C C95A | ≤ -4.2
C54U G88C | ≤ -4.2
U55G U61A G84C C85A C125U | ≤ -4.2
U55A C79A A121C | ≤ -4.2
U53A C103G | -3.95
U53A C85U A91C | ≤ -4.2
U53A G58A G71A G126A U135G | ≤ -4.2
C54G A106G A137U | ≤ -4.2
U55A G80A | -1.65
C54U C85A G133A G140C | ≤ -4.2
C54A G68A A142U | ≤ -4.2
C54G G94A C116A C149U | ≤ -4.2
